{
  "source": "paper PMC4242493",
  "note": "Some of the results follow. The list includes weakly bound sequences.",
  "data": [
    {"biological_target": "MaxL homodimer (UniProt P61244)", "sequence (P61244 whole entry)": "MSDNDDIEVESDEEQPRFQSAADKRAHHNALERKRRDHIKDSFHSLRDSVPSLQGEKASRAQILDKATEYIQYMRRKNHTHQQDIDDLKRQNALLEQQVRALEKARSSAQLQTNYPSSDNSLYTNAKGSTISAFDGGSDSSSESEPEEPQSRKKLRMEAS", "assay": "universal protein-binding microarray (PBM)", "details": "PBS-based mixture, 10 nM His-tagged protein dimer, 2% milk, 200 ng/uL BSA, 50 ng/uL salmon testes DNA, 0.02% TX-100; detection with Alexa 488 anti-His …; high values mean tight binding; most listed sequences are background and not binding sites; double strand, one strand shown", "values": [
      {"sequence": "ACAGCCCG", "binding signal (normalized occupancy)": 0.0748},
      {"sequence": "CGGGGTGC", "binding signal (normalized occupancy)": 0.0731},
      {"sequence": "CATTGCCA", "binding signal (normalized occupancy)": 0.0774},
      {"sequence": "CGAAAGCC", "binding signal (normalized occupancy)": 0.0679},
      {"sequence": "ACAGCGGA", "binding signal (normalized occupancy)": 0.0685},
      {"sequence": "CTGGGTCA", "binding signal (normalized occupancy)": 0.074},
      {"sequence": "GCATTAAA", "binding signal (normalized occupancy)": 0.0803},
      {"sequence": "CATGGCAC", "binding signal (normalized occupancy)": 0.0927},
      {"sequence": "ACGAAGAT", "binding signal (normalized occupancy)": 0.0758},
      {"sequence": "ATACAGGG", "binding signal (normalized occupancy)": 0.0752},
      {"sequence": "CCCCCGGG", "binding signal (normalized occupancy)": 0.0648},
      {"sequence": "AATAGAAG", "binding signal (normalized occupancy)": 0.0752},
      {"sequence": "CTGACGAC", "binding signal (normalized occupancy)": 0.0726},
      {"sequence": "AGCCTTAG", "binding signal (normalized occupancy)": 0.0702},
      {"sequence": "AGTGCCCG", "binding signal (normalized occupancy)": 0.0672},
      {"sequence": "GCGGGATA", "binding signal (normalized occupancy)": 0.0848},
      {"sequence": "CGCGACGC", "binding signal (normalized occupancy)": 0.0713},
      {"sequence": "CGGTACCA", "binding signal (normalized occupancy)": 0.0694},
      {"sequence": "CAAGGATC", "binding signal (normalized occupancy)": 0.08},
      {"sequence": "AGATGTCA", "binding signal (normalized occupancy)": 0.0797},
      {"sequence": "CATCGGAA", "binding signal (normalized occupancy)": 0.0717},
      {"sequence": "CTATCTGA", "binding signal (normalized occupancy)": 0.0775},
      {"sequence": "GCCTCTCA", "binding signal (normalized occupancy)": 0.074},
      {"sequence": "ATACCGCA", "binding signal (normalized occupancy)": 0.0836},
      {"sequence": "CTTGCGGC", "binding signal (normalized occupancy)": 0.0673},
      {"sequence": "ATTCAGGA", "binding signal (normalized occupancy)": 0.0738},
      {"sequence": "GGTGTGGA", "binding signal (normalized occupancy)": 0.0887},
      {"sequence": "CGGTCATC", "binding signal (normalized occupancy)": 0.0796},
      {"sequence": "AGATTTCG", "binding signal (normalized occupancy)": 0.0714},
      {"sequence": "AGTGCCTG", "binding signal (normalized occupancy)": 0.0696},
      {"sequence": "CCTACCAA", "binding signal (normalized occupancy)": 0.0728},
      {"sequence": "CGTAGCAG", "binding signal (normalized occupancy)": 0.0734},
      {"sequence": "CGAGATGC", "binding signal (normalized occupancy)": 0.078},
      {"sequence": "GGACCCAC", "binding signal (normalized occupancy)": 0.0776},
      {"sequence": "TATCCAGA", "binding signal (normalized occupancy)": 0.0728},
      {"sequence": "ATGGTGCC", "binding signal (normalized occupancy)": 0.0838},
      {"sequence": "CATGTCGG", "binding signal (normalized occupancy)": 0.088},
      {"sequence": "CGGGTTCC", "binding signal (normalized occupancy)": 0.0676},
      {"sequence": "GGAGATTA", "binding signal (normalized occupancy)": 0.078},
      {"sequence": "ATCTAAGA", "binding signal (normalized occupancy)": 0.0766},
      {"sequence": "AATATCGT", "binding signal (normalized occupancy)": 0.0747},
      {"sequence": "CTCGCCAA", "binding signal (normalized occupancy)": 0.0718},
      {"sequence": "AGAATTCA", "binding signal (normalized occupancy)": 0.0757},
      {"sequence": "ACACTTTA", "binding signal (normalized occupancy)": 0.0737},
      {"sequence": "CGAATAAA", "binding signal (normalized occupancy)": 0.0729},
      {"sequence": "AAACTATT", "binding signal (normalized occupancy)": 0.0745},
      {"sequence": "CCCATGCG", "binding signal (normalized occupancy)": 0.138},
      {"sequence": "GAGGTGCC", "binding signal (normalized occupancy)": 0.0723},
      {"sequence": "GACTACCC", "binding signal (normalized occupancy)": 0.0744},
      {"sequence": "CATGCATG", "binding signal (normalized occupancy)": 0.121},
      {"sequence": "CTTCAAGA", "binding signal (normalized occupancy)": 0.0727},
      {"sequence": "CGGGGGGC", "binding signal (normalized occupancy)": 0.0758},
      {"sequence": "ATCACCAT", "binding signal (normalized occupancy)": 0.0846},
      {"sequence": "AATTGTCG", "binding signal (normalized occupancy)": 0.0715},
      {"sequence": "AGCCTCCA", "binding signal (normalized occupancy)": 0.0726},
      {"sequence": "CCAAAGAG", "binding signal (normalized occupancy)": 0.0706},
      {"sequence": "GGTCACAA", "binding signal (normalized occupancy)": 0.073},
      {"sequence": "AATACCCT", "binding signal (normalized occupancy)": 0.0801},
      {"sequence": "CGTTGTCA", "binding signal (normalized occupancy)": 0.0754},
      {"sequence": "ACCATGAC", "binding signal (normalized occupancy)": 0.0839},
      {"sequence": "AACTGTGC", "binding signal (normalized occupancy)": 0.0718},
      {"sequence": "CTCGTAAA", "binding signal (normalized occupancy)": 0.0717},
      {"sequence": "CTTATTCA", "binding signal (normalized occupancy)": 0.0766},
      {"sequence": "CACAGACC", "binding signal (normalized occupancy)": 0.0734},
      {"sequence": "CAGCCCGG", "binding signal (normalized occupancy)": 0.066},
      {"sequence": "CTTGGGGA", "binding signal (normalized occupancy)": 0.0767},
      {"sequence": "CGATATTA", "binding signal (normalized occupancy)": 0.0788},
      {"sequence": "GTTGACAA", "binding signal (normalized occupancy)": 0.0751},
      {"sequence": "CCCCGTCA", "binding signal (normalized occupancy)": 0.0738},
      {"sequence": "CAGAGCAA", "binding signal (normalized occupancy)": 0.0701},
      {"sequence": "ATGAGCGC", "binding signal (normalized occupancy)": 0.0764},
      {"sequence": "GCACGTGA", "binding signal (normalized occupancy)": 0.36},
      {"sequence": "CTGATAAG", "binding signal (normalized occupancy)": 0.0754},
      {"sequence": "CCTGGGGC", "binding signal (normalized occupancy)": 0.0692},
      {"sequence": "ACATGGTC", "binding signal (normalized occupancy)": 0.104},
      {"sequence": "TCGGGAGA", "binding signal (normalized occupancy)": 0.0718},
      {"sequence": "TAGAATAA", "binding signal (normalized occupancy)": 0.0809},
      {"sequence": "CCCAGAAC", "binding signal (normalized occupancy)": 0.0683},
      {"sequence": "AGCCATAG", "binding signal (normalized occupancy)": 0.0728},
      {"sequence": "GAGGCCGC", "binding signal (normalized occupancy)": 0.0749},
      {"sequence": "AATTGTTG", "binding signal (normalized occupancy)": 0.076},
      {"sequence": "CCCCCCTC", "binding signal (normalized occupancy)": 0.0827},
      {"sequence": "ACATAGGC", "binding signal (normalized occupancy)": 0.0791},
      {"sequence": "CCATAGGA", "binding signal (normalized occupancy)": 0.0736},
      {"sequence": "GGGAGCAC", "binding signal (normalized occupancy)": 0.0755},
      {"sequence": "ATTTCGGC", "binding signal (normalized occupancy)": 0.0731}
    ]}
  ]
}
